In all, about 310,000 compounds went through this assay and about 2,200 (0.71%) showed an effect of 50% or more. Effects have a minus sign here. The list shows a part of the results.
Biological target: human ether-à-go-go-related gene (hERG) potassium channel (human, UniProt Q12809)
Test: primary screen, population patch clamp on CHO cells stably expressing hERG

human ether-à-go-go-related gene (hERG) potassium channel, sequence (Q12809 whole entry, looked up): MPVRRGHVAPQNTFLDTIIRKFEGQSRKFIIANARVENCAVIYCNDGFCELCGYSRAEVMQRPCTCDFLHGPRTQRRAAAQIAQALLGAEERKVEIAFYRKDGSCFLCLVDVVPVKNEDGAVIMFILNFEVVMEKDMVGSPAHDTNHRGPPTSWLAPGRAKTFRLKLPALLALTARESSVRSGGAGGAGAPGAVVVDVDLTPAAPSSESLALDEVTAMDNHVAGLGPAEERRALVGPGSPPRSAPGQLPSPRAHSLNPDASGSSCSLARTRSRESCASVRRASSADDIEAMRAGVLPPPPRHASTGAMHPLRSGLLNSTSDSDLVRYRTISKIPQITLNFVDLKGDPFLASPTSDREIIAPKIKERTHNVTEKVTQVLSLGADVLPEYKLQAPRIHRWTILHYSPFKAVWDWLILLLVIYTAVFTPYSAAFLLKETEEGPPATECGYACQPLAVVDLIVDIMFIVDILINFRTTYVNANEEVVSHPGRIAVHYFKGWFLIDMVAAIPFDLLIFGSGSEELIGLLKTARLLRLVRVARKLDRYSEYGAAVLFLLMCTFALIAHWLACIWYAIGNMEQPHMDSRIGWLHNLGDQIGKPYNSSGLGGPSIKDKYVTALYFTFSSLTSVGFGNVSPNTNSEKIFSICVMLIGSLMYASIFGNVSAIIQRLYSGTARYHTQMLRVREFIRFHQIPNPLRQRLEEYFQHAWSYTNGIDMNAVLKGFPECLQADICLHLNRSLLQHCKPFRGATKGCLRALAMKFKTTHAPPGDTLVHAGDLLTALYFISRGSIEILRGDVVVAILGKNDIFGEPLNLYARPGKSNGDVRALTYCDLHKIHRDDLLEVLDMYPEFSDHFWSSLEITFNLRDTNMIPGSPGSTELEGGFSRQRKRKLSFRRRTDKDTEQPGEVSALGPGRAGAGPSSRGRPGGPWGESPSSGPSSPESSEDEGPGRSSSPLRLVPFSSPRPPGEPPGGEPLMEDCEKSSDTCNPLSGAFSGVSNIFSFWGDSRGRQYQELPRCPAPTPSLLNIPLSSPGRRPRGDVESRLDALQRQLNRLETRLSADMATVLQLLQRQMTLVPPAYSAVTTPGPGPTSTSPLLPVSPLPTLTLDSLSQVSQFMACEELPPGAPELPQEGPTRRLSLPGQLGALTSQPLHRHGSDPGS

SMILES	hERG current change (%, negative = inhibition) at 1uM [%]
Brc1ccc(CNCCCSc2ncccn2)cc1.Cl	6.81
C=CCNC(=O)NC(=O)COC(=O)/C(C#N)=C/c1ccc(OC)cc1	9.72
O=C(CC(=O)c1ccccc1[N+](=O)[O-])c1ccccc1	12.7
Cc1[nH]n(-c2ccccc2)c(=O)c1/C=N\NC(=O)C1COc2ccccc2O1 (centres unmarked)	12.4
O=C(NNc1cccc(Cl)n1)c1c(F)cccc1F	13.1
Cc1cccc(-n2c(C)nc3cc(C(=O)NCc4ccc5c(c4)OCO5)ccc32)c1	3.92
COc1ccc(NC(=O)Cc2c(F)cccc2Cl)cc1	17
CCC(=NCc1ccc(Cl)c(Cl)c1)c1nc(-c2ccco2)oc1O	18.5
COC(=O)c1cc(NC(=O)CSC2=NCCS2)cc(C(=O)OC)c1	6.21
O=C(Nc1ccccc1C(=O)NCCCn1ccnc1)c1ccccc1	-2.45
C=CCO/N=C/C1=C(O)C(C(=O)OC)C(C)(C)CC1=O (centres unmarked)	-1.13
CCOC(=O)c1c(NC(=O)Cn2cnc([N+](=O)[O-])n2)sc2c1CCC(C)C2 (centres unmarked)	9.35
CC(=O)c1c(C)[nH]c(C(=O)CN2C(=O)NC(C)(c3ccc4c(c3)OCCO4)C2=O)c1C (centres unmarked)	5.11
CCn1nc(C)c(/C=C/C(=O)Nc2ccc(C)cc2C)c1C	20.5
CCOc1ccccc1NC(=O)NNS(=O)(=O)c1cc(OC)ccc1OC	14.3
CS(=O)(=O)N(CC(=O)N1CCCCC1)Cc1ccc(Cl)cc1	5.04
COc1ccc(-c2nc3cc(NC(=S)NC(=O)Cc4ccccc4)ccc3o2)cc1	14.1
CC(=O)c1c(C)[nH]c(C(=O)/C(C#N)=C/c2cccc(C)c2)c1C	12.6
O=C(C1CCCN(c2ncnc3c2nc2n3CCCCC2)C1)N1CCN(c2ccc(F)cc2)CC1 (centres unmarked)	-1.48
CCOC(=O)Cc1csc(NC(=S)NC(=O)c2ccc([N+](=O)[O-])cc2)n1	12.3
CCOC(=O)COc1c(/C=N\O)cc(Cl)cc1OC	-0.55
COc1cc2c(cc1OC)C(C(=O)N(C)Cc1ccccc1)C(c1cccnc1)N(C)C2=O (centres unmarked)	1.04

SMILES	hERG current change (%, negative = inhibition) at 1uM [%]
Cc1ccn2c(=O)c(NC(=O)c3cccs3)c(C)nc2c1	10.3
COCCNC(=O)NC(=O)COC(=O)c1cc([N+](=O)[O-])ccc1Sc1nc(C)cs1	8.78
Cc1oc(-c2cccc(Cl)c2)nc1CN1CCC(C(=O)NC2CC2)CC1	14.6
Cc1cccc(NC(=O)c2cc(-c3ccc(C)s3)nc3ccccc23)n1	8.15
O=c1c2ccccc2nc(-c2ccccc2)n1Cc1ccccc1	12
Cc1ccc(NC2=C/C(=N/S(=O)(=O)c3cccs3)c3ccccc3C2=O)cc1C	12.4
Cc1ccc(S(=O)(=O)C2CCCCC2=O)cc1 (centres unmarked)	13.4
COc1ccc(/C=C2\NC(=S)N(CC3CCCO3)C2=O)c(OC)c1C (centres unmarked)	8.6
Cn1c(SCC(=O)Nc2ccc(NC(=O)c3cccs3)cc2)nnc1-c1ccncc1	1.87
CCOc1cc(N2CCOCC2)c(OCC)cc1NC(=O)COc1ccccc1[N+](=O)[O-]	6.81
CC(C)Cc1nnc(NC(=O)CCNC(=O)c2ccccc2Cl)s1	9.84
CCN(CC)CCNC(=O)C(=O)Nc1cc2c3c(c1)CC(=O)N3CCC2	23.5
CC1Cc2ccccc2N1C(=O)CN1C(=O)C(=O)N(Cc2ccccc2)C1=O (centres unmarked)	14.1
COc1ccc(-c2cc(C)no2)cc1S(=O)(=O)NCCCN1CCN(c2ccccc2)CC1	-18.8
CN(Cc1ccccc1)C(=O)CN1C(=O)NC(C)(c2ccc(C(C)(C)C)cc2)C1=O (centres unmarked)	11
O=C(NC1CCCC1)c1n[nH]c2ccccc12	12
CCOC(=O)Nc1cc(OC)c(OC)cc1Cc1nccc2cc(OC)c(OC)cc12	-1.65
COc1ccc(OC)c(NC(=O)CSc2nnc(Cc3cccn3C)n2CCc2ccccc2)c1	-2.49
Cc1ccc2nc(SCC(=O)NCc3ccc(S(N)(=O)=O)cc3)[nH]c2c1	14.4
Cc1nnc(NC(=O)CN2CCN(Cc3c(Cl)cccc3Cl)CC2)s1	11.9
Cc1ccc(NC(=O)c2cc(S(=O)(=O)Nc3ccc(C)cc3)cs2)cc1	14.2
COc1ccc(Cl)cc1NC(=S)N(CCCN1CCOCC1)Cc1cn(C)c2ccccc12	8.42

SMILES	hERG current change (%, negative = inhibition) at 1uM [%]
Cc1cc(Cl)c(OCCCN2CCCCC2)c(Br)c1.O=C(O)C(=O)O	-33.2
Cc1ccc(C(=O)COC(=O)CCC(=O)NC2CCCCC2)cc1[N+](=O)[O-]	9.1
Cl.c1ccc2c(Nc3nc(N4CCOCC4)c4ccccc4n3)cccc2c1	20
O=C(C1CCC1)N1CCN(c2ccc(C(F)(F)F)cc2[N+](=O)[O-])CC1	-24.6
CC(=O)Oc1c(S(=O)(=O)c2ccc(C)cc2)c(C)nn1-c1ccccc1	-2.15
O=c1c(N=Nc2ccc(O)cc2)c(-c2ccccc2)[nH]n1-c1ccc([N+](=O)[O-])cc1	9.87
O=C(CSCc1ccc([N+](=O)[O-])cc1)Nc1ccc(S(=O)(=O)N2CCCCCC2)cc1	10.8
COc1ccc(OC)c(NC(=O)C2CCCN(S(=O)(=O)c3cccc4nonc34)C2)c1 (centres unmarked)	8.05
Cc1ccc(CN2CCN(C(=O)C3CCC3)CC2)cc1	19.5
Cc1ccc2cc3c(NC(=O)c4cccnc4)nn(C)c3nc2c1	14.9
CCC(=O)NC(=S)Nc1ccc(OC)cc1OC	11.5
COc1ccccc1Nc1nc(N)nc(CCl)n1	9.66
COc1ccccc1NC(=O)N1CCN(C(=O)c2ccco2)CC1	8.7
COC(=O)C1=C(C)N(c2ccc(F)cc2)/C(=C/c2ccc(O)cc2)C1=O	22.4
COc1ccccc1-n1cnc2cc(C(=O)NC3CCCC3)ccc21	-20.9
COC(=O)C1CN(C(=O)COc2ccc(Cl)c(C)c2)c2ccccc2O1 (centres unmarked)	2.74
CCCN(Cc1cc2cccc(C)c2[nH]c1=O)C(=O)c1cccc(OC)c1	-20.2
O=C(c1ccc(S(=O)(=O)N2CCCC2)cc1)N(c1ccccc1)C1C=CS(=O)(=O)C1 (centres unmarked)	3.87
O=C(C(=O)N1CCN(c2ccc(F)cc2)CC1)c1cn(CC(=O)N2CCOCC2)c2ccccc12	8.97
Nc1c2c(nc3ccccc13)CCCC2=O.O=C(O)CCC(=O)O	2.69
O=C(COC(=O)c1cc(S(=O)(=O)N2CCCCC2)ccc1N1CCOCC1)c1ccccc1	14.4
O=C1c2ccccc2C(=O)c2c1ncn2-c1ccccc1	-1.06

SMILES	hERG current change (%, negative = inhibition) at 1uM [%]
Cc1cc(C)nc(N2CCCC(C(=O)NCc3ccccc3F)C2)n1 (centres unmarked)	10.8
COC(=O)Nc1ccc(S(=O)(=O)Nc2cccc3ccccc23)cc1	8.94
COc1ccc(NC(=O)c2cccnc2N2CCCC2)cc1	0.501
O=C1c2ccccc2C(=O)N1/N=C/c1ccc(O)c(O)c1	13.9
CCOC(=O)c1ccc(N2CN=C3SCC(=O)N3C2)cc1	5.05
COc1ccc(C2C3=C(CC(C)(C)CC3=O)Nc3c2c(=O)[nH]c(=O)n3Cc2ccccc2)cc1OC (centres unmarked)	6.07
CC(NC(=O)COc1ccc(/C=N/NC(=O)CO)cc1)c1ccccc1 (centres unmarked)	4.94
CC12CCC(C(=O)N3CCc4ccccc43)(CC1=O)C2(C)C (centres unmarked)	6.9
Cc1cc2cc(CCNC(=O)c3cccs3)c(=O)[nH]c2cc1C	3.28
Cc1ccc(NC(=O)OCc2cc(-c3ccccc3)on2)cc1	3.74
Cc1nnc(SC(C)C(=O)Nc2ccc(S(=O)(=O)N3CCCCC3)cc2)s1 (centres unmarked)	5.99
CCOC(=O)CSc1nnc(N)s1	13.4
O=C(CSc1nc2ccccc2c(=O)n1-c1ccccc1)NC(=O)CN1CCCC1=O	13.8
COC(=O)c1ccc(OC(=O)CCN2c3ccccc3Sc3ccccc32)cc1	11.4
Cc1ccc(NC(=O)C(C)Sc2nc3nc(C)cc(C)n3n2)cc1 (centres unmarked)	-2.41
C/C(CC(=O)N1CCN(C=O)CC1)=N\NC(=O)c1cc2ccccc2cc1O	4.71
Cc1ccc(NC(=O)/C=C/C(=O)O)c(NC(=O)c2ccccc2)c1	10.5
CCCCC1(c2ccc(F)cc2)NC(=O)N(CC(=O)N2CCN(C(=O)c3ccco3)CC2)C1=O (centres unmarked)	-13.9
Cc1ccc2[nH]c(=O)c(CN(Cc3ccco3)C(=O)CN3CCCC(C)C3)cc2c1 (centres unmarked)	-18.9
CCOC(=O)C1CCN(C(=O)CN(c2cc(Cl)ccc2OC)S(=O)(=O)c2ccccc2)CC1	-1.05

From PMC4336329 (PLoS ONE, 2015)
